Reference: the antibiotic and cytotoxicity screens of Wong et al. (2023)
This is one part of the list.

Columns and labels:
HSkMC = human skeletal muscle cells; test: cytotoxicity call (relative viability < 0.9); conditions: 10 µM
HepG2 = test: cytotoxicity call (relative viability < 0.9); conditions: 10 µM
S. aureus RN4220 = test: growth inhibition call (relative growth <= 0.2); conditions: 50 µM

| Compound | cytotoxicity call (HSkMC) | cytotoxicity call (HepG2) | growth inhibition call (S. aureus RN4220) |
| --- | --- | --- | --- |
| Cc1noc(C)c1NC(=O)Nc1ccc2c(c1)C(=O)N([C@@H](C)CO)C[C@H](C)[C@@H](CN(C)Cc1ccc(C(=O)Nc3ccccc3N)cc1)O2 | inactive | inactive | inactive |
| CC(C)NC(=O)N(C)C[C@@H]1Oc2ccc(NC(=O)Cc3ccccc3)cc2C(=O)N([C@H](C)CO)C[C@H]1C | inactive | inactive | inactive |
| CCC(=O)Nc1ccc2c(c1)OC[C@@H](C)N(C(=O)CN1CCOCC1)C[C@@H](C)[C@H](OC)CN(C)C2=O | inactive | inactive | inactive |
| Cc1noc(C)c1NC(=O)N(C)C[C@@H]1Oc2ccc(NS(=O)(=O)c3ccccc3)cc2CC(=O)N([C@H](C)CO)C[C@H]1C | inactive | inactive | inactive |
| C[C@H](CO)N1C[C@H](C)[C@H](CN(C)C(=O)C2CCCCC2)OCCCC[C@H](C)Oc2ccc(NC(=O)C3CCCCC3)cc2C1=O | inactive | inactive | inactive |
| CO[C@@H]1CN(C)C(=O)c2cc(NS(=O)(=O)c3cn(C)cn3)ccc2OC[C@H](C)N(CCC(F)(F)F)C[C@@H]1C | inactive | inactive | inactive |
| C[C@@H]1CN([C@H](C)CO)C(=O)Cc2cc(NC(=O)Nc3cccc4ccccc34)ccc2O[C@@H]1CN(C)C(=O)Nc1ccc2c(c1)OCO2 | inactive | inactive | inactive |
| C[C@@H]1CN([C@H](C)CO)C(=O)c2cc(NS(C)(=O)=O)ccc2O[C@@H](C)CCCCO[C@@H]1CN(C)S(=O)(=O)c1cn(C)cn1 | inactive | inactive | inactive |
| COCCNC(=O)c1ccc(N2C[C@H]3C[C@@H](C2)c2cccc(=O)n2C3)c(NC(=O)c2ccc(OC)cc2)c1 | inactive | inactive | inactive |
| O=C1COC(=O)N1C1CCNCC1 | inactive | inactive | inactive |
| C[C@H]1CN([C@@H](C)CO)C(=O)Cc2cc(NC(=O)CCN3CCOCC3)ccc2O[C@@H]1CN(C)S(=O)(=O)c1ccc(F)cc1 | inactive | inactive | inactive |
| COc1cc(/C=C/C(=O)CC2=N/C(=N/CCc3ccccc3)S[C@H](c3ccc(O)c(OC)c3)C2)ccc1O | inactive | inactive | inactive |
| COc1ccc(NC(=O)Nc2ccc3c(c2)C(=O)N([C@H](C)CO)C[C@H](C)[C@H](CN(C)C(=O)Nc2ccc(F)cc2)OCCCC[C@H](C)O3)cc1 | inactive | inactive | inactive |
| CCOC(=O)CC1=NNC(=N)SC1 | inactive | inactive | inactive |
| C[C@@H]1CN([C@H](C)CO)C(=O)c2cc(NC(=O)C3CC3)ccc2O[C@@H]1CN(C)Cc1ccc2c(c1)OCO2 | inactive | inactive | inactive |
| Cn1cnc(S(=O)(=O)N2C[C@H](O)COC[C@H]3O[C@H](CC(=O)NCc4cc(F)cc(F)c4)CC[C@@H]32)c1 | inactive | inactive | inactive |
| COc1cccc(S(=O)(=O)Nc2ccc3c(c2)[C@H]2C[C@@H](CC(=O)NC4CCCCC4)O[C@@H](CO)[C@H]2O3)c1 | inactive | inactive | inactive |
| C[C@@H]1CN([C@@H](C)CO)C(=O)c2cc(C#CCN(C)C)cnc2O[C@@H]1CN(C)Cc1cccc(C(=O)O)c1 | inactive | inactive | inactive |
| O=C(C[C@@H]1CC[C@@H]2[C@H](COC[C@@H](O)CN2S(=O)(=O)c2ccc(Cl)cc2)O1)NCCN1CCCC1 | inactive | inactive | inactive |
| Cc1ccc(S(=O)(=O)Nc2ccc3c(c2)CC(=O)N([C@H](C)CO)C[C@@H](C)[C@@H](CN(C)S(=O)(=O)c2ccccc2)O3)cc1 | inactive | inactive | inactive |
| C[C@H](CO)N1C[C@H](C)[C@H](CN(C)C(=O)Nc2ccc(C(F)(F)F)cc2)Oc2ccc(NC(=O)Nc3ccc(C(F)(F)F)cc3)cc2CC1=O | active | active | inactive |
| COc1cccc(S(=O)(=O)N(C)C[C@H]2Oc3ncc(-c4cccc(C(=O)N(C)C)c4)cc3C(=O)N([C@H](C)CO)C[C@H]2C)c1 | inactive | inactive | inactive |
| C[C@@H]1CN([C@@H](C)CO)C(=O)c2cc(NC(=O)C3CCCCC3)ccc2O[C@@H](C)CCCCO[C@H]1CN(C)C(=O)Nc1ccccc1 | inactive | inactive | inactive |
| C[C@@H]1CN([C@H](C)CO)C(=O)Cc2cc(NC(=O)Nc3ccc(F)cc3)ccc2O[C@H]1CN(C)C(=O)Nc1ccc(C(F)(F)F)cc1 | inactive | inactive | inactive |
| C[C@H](CO)N1C[C@H](C)[C@H](CN(C)Cc2ccc(C(=O)Nc3ccccc3N)cc2)Oc2c(NS(=O)(=O)c3ccc(Cl)cc3)cccc2C1=O | inactive | active | inactive |
